# Paper PMC4336329 (PLoS ONE, 2015)
# Screen size: about 310,000 compounds; about 2,200 (0.71%) showed an effect of 50% or more. The effect is printed as a negative number. Some of the results follow.
# Target: human ether-à-go-go-related gene (hERG) potassium channel (human, UniProt Q12809)
# Assay: primary screen, population patch clamp on CHO cells stably expressing hERG
# human ether-à-go-go-related gene (hERG) potassium channel, sequence (Q12809 whole entry, looked up): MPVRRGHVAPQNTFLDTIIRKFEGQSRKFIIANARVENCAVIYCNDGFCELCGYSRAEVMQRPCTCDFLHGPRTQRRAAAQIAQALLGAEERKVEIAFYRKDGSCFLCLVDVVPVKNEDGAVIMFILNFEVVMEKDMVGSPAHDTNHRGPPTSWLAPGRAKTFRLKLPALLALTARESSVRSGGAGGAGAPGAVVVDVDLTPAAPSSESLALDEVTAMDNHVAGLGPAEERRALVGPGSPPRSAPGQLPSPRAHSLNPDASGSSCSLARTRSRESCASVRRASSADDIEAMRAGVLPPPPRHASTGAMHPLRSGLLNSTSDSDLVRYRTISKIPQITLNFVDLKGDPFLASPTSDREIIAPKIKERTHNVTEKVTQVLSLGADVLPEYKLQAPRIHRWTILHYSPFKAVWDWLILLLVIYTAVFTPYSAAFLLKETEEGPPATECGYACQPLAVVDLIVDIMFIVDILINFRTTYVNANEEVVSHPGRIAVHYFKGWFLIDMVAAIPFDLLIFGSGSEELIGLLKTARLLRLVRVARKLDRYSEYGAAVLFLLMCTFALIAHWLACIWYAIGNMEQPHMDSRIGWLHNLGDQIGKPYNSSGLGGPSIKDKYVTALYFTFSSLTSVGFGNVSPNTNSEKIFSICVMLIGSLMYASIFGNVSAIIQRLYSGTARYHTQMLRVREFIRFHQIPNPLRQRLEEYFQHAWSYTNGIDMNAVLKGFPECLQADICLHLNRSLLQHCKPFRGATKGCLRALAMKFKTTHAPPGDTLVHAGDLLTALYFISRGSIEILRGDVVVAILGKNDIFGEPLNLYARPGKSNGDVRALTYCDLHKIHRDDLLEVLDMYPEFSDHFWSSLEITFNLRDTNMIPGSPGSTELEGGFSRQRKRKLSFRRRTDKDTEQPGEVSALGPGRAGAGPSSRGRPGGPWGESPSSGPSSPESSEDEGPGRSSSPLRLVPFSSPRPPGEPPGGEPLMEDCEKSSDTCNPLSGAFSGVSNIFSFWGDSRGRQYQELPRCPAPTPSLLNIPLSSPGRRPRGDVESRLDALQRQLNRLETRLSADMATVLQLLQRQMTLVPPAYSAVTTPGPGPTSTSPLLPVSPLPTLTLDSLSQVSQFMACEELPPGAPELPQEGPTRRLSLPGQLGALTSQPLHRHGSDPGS
row,SMILES,"hERG current change (%, negative = inhibition) at 1uM [%]"
1,O=C(Nc1nc(-c2ccc3ccccc3c2)cs1)c1ccc(N2C(=O)CCC2=O)cc1,12.2
2,Cc1cc(C(=O)NC2=NCCS2)cs1,-13
3,O=C1CCC[C@@H]2Cc3[nH]c4c(Cl)ccc(Cl)c4c3[C@@H]3CCN1[C@H]23,3.72
4,O=C(NNC1=NCCN1Cc1ccccc1)c1cccc(C(F)(F)F)c1,1.8
5,Cc1cc(NC(=O)CCC(=O)N(Cc2cccs2)C(C)(C)C(=O)NC2CCCCC2)no1,13.6
6,Cc1nc2oc3c(=O)[nH]cnc3c2c2c1COC(C)(C)C2,7.83
7,Nc1nc(Cl)nc2ccc(Br)cc12,11.5
8,CCOC(=O)Cn1cnc2c(cnn2-c2ccc(OC)cc2)c1=O,17.1
9,CCc1ccc(-c2csc3[n+]2CCN3C(C)=O)cc1.[Br-],-2.61
10,CC1CCC(NC(=O)COc2ccccc2C(N)=O)CC1 (stereo not shown),8.88
11,FC(F)(F)c1cccc(-c2nnc(-c3ccccc3)c(N3CCOCC3)n2)c1,-11.9
12,Cc1ccc(S(=O)(=O)n2nc(C)c(Br)c2C)c(C)c1C,13.4
13,Cc1cccc(NC(=O)CSc2nccn2C)c1,10.9
14,COc1ccc(-c2nc3c([nH]2)c(=O)n(C)c(=O)n3C)c(OC)c1,7.91
15,CC(NC(=O)Nc1ccc([N+](=O)[O-])cc1)C(c1cccs1)N1CCCC1 (stereo not shown),-34.8
16,CCN(CC)S(=O)(=O)c1cc(OCC(N)=O)c(C)cc1Cl,4.73
17,O=S(=O)(NC1CCCCCCC1)c1ccccc1,7.9
18,O=C(NC1CCCC1)C(c1ccncc1)N(C(=O)c1ccco1)c1ccccc1 (stereo not shown),2.13
19,CCOc1ccc(C2N(c3cc(Cl)ccc3OC)C(=O)C3CCCN32)cc1OC (stereo not shown),3.61
20,C=CCn1c(CNC(=O)c2ccccc2F)nnc1SCC(=O)N1CCOCC1,-6.65
21,Cc1csc(NC(=O)c2cncc(Br)c2)n1,4.03
22,CCOc1cccc(CN2CCN(CCc3ccccc3)C(CCO)C2)c1O (stereo not shown),-20.1
23,CCN(CC)c1ccc(/C=N/NC(=O)c2ccc([N+](=O)[O-])cc2)cc1,16.9
24,Cc1onc(-c2ccccc2)c1C(=O)Nc1cccc(S(=O)(=O)NC2=NCCC2)c1,10.7
25,CC12CCC(=O)N1C(C(=O)Nc1nnc(SCc3ccc(F)cc3)s1)CS2 (stereo not shown),10.1
